From patent publication US20180230235A1 (Affibody, published 2018)

B1: Z06944 ABD fusion protein (designed binder, not shown: large carriers; small tags and cut ends)
chain: VDAKYAKEWQWAGVEIAELPNLTQQQRDAFIYKLWDDPSQSSELLSEAKKLNDSQAPK
notes: periplasmic sample
B2: Z06955 ABD fusion protein (designed binder, not shown: large carriers; small tags and cut ends)
chain: B1 chain with A17Q, D28H
notes: periplasmic sample

Target: Human CAIX (carbonic anhydrase IX) (human, UniProt Q16790 fragment)
Assay: ELISA titration of biotinylated human CAIX on captured Z-ABD fusion

Row | Binder | Kd [nM]
1 | B1 | 14
2 | B2 | 7.7

Positions count from the first letter of the chain named.
